# Results: publication PMC6919601, “Identification of Plasmodium dipeptidyl aminopeptidase allosteric inhibitors by high throughput screening” (PLoS ONE, 2019)
# Out of some 110,000 compounds screened, about 230 (0.21%) showed an effect of 50% or more. Some of the results follow.
# Target: DPAP1 (Plasmodium falciparum, UniProt Q8IIJ9)
# Experiment: primary screen, percent inhibition; read by cleavage of a fluorogenic dipeptide substrate; higher = more effect of the substance
# Set-up: species or system P. falciparum D10 trophozoite lysates; single well
# 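Further: 30 min substrate incubation versus DMSO and 10 µM JCP410 controls.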
# Sequence of DPAP1 (Q8IIJ9 whole entry, looked up): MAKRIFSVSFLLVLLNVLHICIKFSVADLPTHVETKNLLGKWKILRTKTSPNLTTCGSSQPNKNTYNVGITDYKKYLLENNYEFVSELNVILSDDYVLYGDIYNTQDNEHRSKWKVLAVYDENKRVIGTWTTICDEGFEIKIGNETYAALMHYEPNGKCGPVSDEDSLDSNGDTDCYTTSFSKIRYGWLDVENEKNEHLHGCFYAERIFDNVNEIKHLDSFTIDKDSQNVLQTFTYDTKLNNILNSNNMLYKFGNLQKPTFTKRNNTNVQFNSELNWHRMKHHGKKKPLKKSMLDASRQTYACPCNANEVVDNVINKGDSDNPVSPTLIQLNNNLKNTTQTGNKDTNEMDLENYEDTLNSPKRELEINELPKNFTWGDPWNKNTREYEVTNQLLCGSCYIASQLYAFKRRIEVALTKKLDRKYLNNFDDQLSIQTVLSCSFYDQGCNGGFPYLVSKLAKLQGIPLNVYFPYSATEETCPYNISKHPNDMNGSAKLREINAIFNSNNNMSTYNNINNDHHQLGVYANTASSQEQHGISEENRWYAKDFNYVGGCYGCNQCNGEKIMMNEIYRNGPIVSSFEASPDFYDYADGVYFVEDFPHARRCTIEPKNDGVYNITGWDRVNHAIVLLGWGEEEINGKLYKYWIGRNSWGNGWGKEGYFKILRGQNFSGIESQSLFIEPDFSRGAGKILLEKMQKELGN
row,SMILES,% Inhibition @ 10 uM [%]
1,Cc1ccc2onc(CNC(=O)N(C)C3CCCCC3)c2c1,-1.97
2,CCCCN(CCNC(=O)Nc1cn(CC(C)C)c(=O)c2ccccc12)Cc1ccco1,1.74
3,Cc1ccc(-n2cc3c(c2-c2ccc(Cl)cc2)c(=O)n(C)c(=O)n3C)cc1,-3.12
4,CCOc1ccc(/N=C2\SC(C(=O)Nc3cccc(OCC)c3)CC(=O)N2C)cc1 (stereo not drawn),-6.77
5,COCc1[nH]nc2c1C(c1ccc(OCc3ccccc3)c(OC)c1)C(C#N)=C(N)O2 (stereo not drawn),6.24
6,COc1ccc(-c2csc(/C(C#N)=C\Nc3cccc(F)c3)n2)cc1,-1.44
7,COCCNC(=O)c1cc2c(-c3cccc(OC)c3)nn(C)c2s1,6.08
8,COc1cc2c(cc1OC)C(c1ccc(Cl)cc1)N(C(C)=O)CC2 (stereo not drawn),0.605
9,Cc1ccnc(SC2CC(=O)N(c3ccc4ccccc4c3)C2=O)n1 (stereo not drawn),-1.64
10,CCOC(=O)N1CCN(Cc2cc(=O)oc3cc(C)ccc23)CC1,-3.49
11,CCc1nn(-c2cc(Oc3ccccc3)nc(C)n2)c(N)c1C(N)=O,3.56
12,Cc1ccc(S(=O)(=O)N(CC(=O)NC2CC3CCC2C3)c2ccc(Br)cc2)cc1 (stereo not drawn),4.25
13,CC1=NC(C(F)(F)F)(C(F)(F)F)C2=C(CC(C)(C)CC2=O)N1Cc1ccco1,3.54
14,N#CCNC(=O)C(Cc1c(Cl)cccc1Cl)NC(=O)OCc1ccccc1 (stereo not drawn),1.42
15,Cc1c(NC(=O)c2ccccc2)cccc1[N+](=O)[O-],-4.04
16,O=S(=O)(c1ccccc1)N1CCN(Cc2ccccc2)CC1,-1.07
17,Cc1ccc(CNC(=O)C2CCC(CNS(=O)(=O)c3cccs3)CC2)cc1 (stereo not drawn),-0.668
18,Cc1cc(OCC(=O)Nc2nccs2)c(C(C)C)cc1Br,1.94
19,CCCCCn1c(CN2CCN(Cc3ccccc3)CC2)nc2c1c(=O)n(C)c(=O)n2C,0.317
20,CN1CCCCC/C1=N\CCCn1cnc2c1c(=O)[nH]c(=O)n2C,-5.28
21,CSc1ccc(C2c3c(-c4ccccc4O)n[nH]c3C(=O)N2Cc2ccco2)cc1 (stereo not drawn),-3.12

row,SMILES,% Inhibition @ 10 uM [%]
1,O=C(CCSc1ccccc1)NC1CC2CCC1C2 (stereo not drawn),4.83
2,COc1ccc(C2CC(c3ccc(Br)cc3)=NN2c2ccccc2F)cc1 (stereo not drawn),-1.29
3,CCOC(=O)c1ccc2nc(NC(=O)C34CC5CC(CC(C5)C3)C4)sc2c1,3.34
4,O=C(NCc1nc2ccccc2[nH]1)c1ccccc1,0.0345
5,O=C(O)c1ccccc1NS(=O)(=O)c1cccc2cccnc12,-3.46
6,CC(c1ccccc1C(O)(c1ccccc1)C(F)(F)F)N(C)C (stereo not drawn),-1.5
7,CN1CCN(C(=O)CSc2c(O)nc3ccc(Cl)cc3c2-c2ccccc2)CC1,-1.61
8,O=C(c1ccco1)c1cn(CCOc2ccccc2F)c2ccccc12,-5
9,Clc1cccc(N2CCN(C3CCN(Cc4ccccc4)CC3)CC2)c1,1.57
10,COc1cc(/C=N\n2nnnc2N)cc(OC)c1OC,6.11
11,COc1cc(OC)c(CN2CCN(c3cccc(C(F)(F)F)c3)CC2)cc1Br,-0.192
12,Cc1ccc(OCC(=O)Nc2ccc3ccccc3c2)c(C)c1,-0.95
13,COc1ccc(C2C(C#N)=C(N)Oc3ccc4ccccc4c32)cc1 (stereo not drawn),-0.99
14,Oc1ccc(NCc2ccc(Br)cc2)cc1,4.67
15,Cc1ccc(S(=O)(=O)C2(C(=O)NCCc3ccccc3)CC2)cc1,6.28
16,CCCCCCCC1NC(=O)NC(C)=C1C(=O)OCC (stereo not drawn),2.65
17,COc1ccccc1C1CC(=O)NC(SCC(=O)Nc2ccc(Br)cc2)=C1C#N (stereo not drawn),-5.96
18,CN(C)CCNC(=O)c1cc(Sc2cccc(Cl)c2)nc2ccccc12,-2.26
19,CCCN(CCC)C(=O)Cn1c(=O)sc2ccccc21,-7.93
20,CCC[C@H](NC(=O)C1(NC(=O)c2cc3cc(OC)ccc3o2)CCCCC1)C(=O)c1nc2ccccc2o1,-6.46
21,O=C(Nc1nc2n(n1)C(c1ccccc1)C=C(c1ccccc1)N2)c1ccco1 (stereo not drawn),4.18

row,SMILES,% Inhibition @ 10 uM [%]
1,COc1cc(/C=C2\C(=N)N3N=C(S(C)(=O)=O)SC3=NC2=O)ccc1OCc1ccccc1C,-7.21
2,Oc1cc(Cc2nc3ccccc3[nH]2)nn1-c1ccccc1,15.2
3,CCOC(=O)N1CCN(c2nc3ccccc3n3nnnc23)CC1,-0.735
4,Cc1ccc2c(CNC3CC3)c(C(=O)O)n(Cc3ccccc3C)c2c1,-2.56
5,CNC(=O)C1CCCN(c2nnc(C)c3c(C)n(-c4ccc(Cl)cc4)nc23)C1 (stereo not drawn),-2.68
6,COc1cc(C2=N/C(=C\c3ccc(Cl)cc3Cl)C(=O)O2)cc(OC)c1OC,1.3
7,COc1ccc(/C=C(\NC(=O)c2ccccc2)C(=O)NCC2CCCO2)cc1 (stereo not drawn),-0.615
8,CCCC[C@H](NC(=O)C(Cc1c(F)cccc1F)NC(=O)c1ccc(-c2ccccc2Cl)cc1)C(=O)c1nnc(-c2ccccc2)o1 (stereo partly drawn),-8.81
9,COc1ccc(CC(=O)Nc2cc(C)cc(C)c2)cc1,-4.91
10,O=C(Nc1cccc2ccccc12)c1cc(F)c(Cl)nc1Cl,-3.34
11,CC1=C(c2ccc(C)cc2)S(=O)(=O)N=C1N1CCCC(C)C1 (stereo not drawn),0.0882
12,N#Cc1c(N)nc2c(c1-c1ccccc1)CCCC2,-1.98
13,CC(=O)Nc1ccc(S(=O)(=O)N(C)C2CCCCC2)cc1,2.46
14,COc1ccc(CN2COc3c(cc4c(C)c(C)c(=O)oc4c3C)C2)cc1OC,-2.57
15,CCN(CC)CCN(C)Cc1ccccc1F,-2.34
16,COc1ccc(-c2oc3ncn4nc(-c5ccco5)nc4c3c2-c2ccc(OC)cc2)cc1,-1.6
17,CCCCn1cnc2sc3c(c2c1=N)CCCC3,17.2
18,COc1cccc(/C=c2/sc3nc(=O)c(Cc4ccc(F)cc4)nn3c2=O)c1OC,2.9
19,O=C(NCCCCc1ccccc1)c1ccc(Br)cc1,-3.03
20,CCCSc1ncc(Cl)c(C(=O)NCc2ccccc2)n1,-1.11
21,COc1ccc(CC(=O)N2CCC(c3ccccc3)C2)cc1 (stereo not drawn),-6.69
